# Results from the supplement of paper PMC8728848.
# The other results are listed elsewhere or left out.
# B1: CV-IIL (Chromobacterium violaceum) (protein)
# chain: AQQGVFTLPARINFGVTVLVNSAATQHVEIFVDNEPRAAFSGVGTGDNNLGTKVINSGSGNVRVQITANGRQSDLVSSQLVLANKLNLAVVGSEDGTDMDYNDSIVILNWPLG
# Key:
# Assay in all cases: glycan array binding signal (z-score within array); higher = stronger binding
# Settings in all cases: glycan notation: IUPAC condensed, linker removed
# [1] = target: Neu5Ac(a2-3)Gal(b1-3)GalNAc(b1-3)Gal(b1-4)GlcNAc
# Summary of the method: (§1)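 Glycan array data came from 3228 arrays in the Consortium for Functional Glycomics database, and only arrays with an available protein sequence were kept. Glycan names were put into IUPAC-condensed notation, and columns mapping to the same glycan were averaged. The binding signal is a within-array Z-score, averaged across arrays of one protein sequence run at different concentrations or buffers and across linkers. A negative Z-score can be read as non-binding.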
# [2] = target: Neu5Ac(a2-3)Gal(b1-3)GalNAc(b1-4)[Neu5Ac(a2-3)]Gal(b1-4)Glc
# Summary of the method: as §1
# [3] = target: Neu5Ac(a2-3)Gal(b1-3)GalNAc6S
# Summary of the method: as §1
# [4] = target: Neu5Ac(a2-3)Gal(b1-3)GlcNAc
# Summary of the method: as §1
# [5] = target: Neu5Ac(a2-3)Gal(b1-3)GlcNAc6S
# Summary of the method: as §1
# [6] = target: Neu5Ac(a2-3)Gal(b1-3)[Fuc(a1-4)]GlcNAc
# Summary of the method: as §1
# [7] = target: Neu5Ac(a2-3)Gal(b1-3)[Fuc(a1-4)]GlcNAc(b1-3)Gal(b1-4)[Fuc(a1-3)]GlcNAc
# Summary of the method: as §1
# [8] = target: Neu5Ac(a2-3)Gal(b1-3)[Neu5Ac(a2-3)Gal(b1-4)]GlcNAc
# Summary of the method: as §1
# [9] = target: Neu5Ac(a2-3)Gal(b1-3)[Neu5Ac(a2-6)]GalNAc
# Summary of the method: as §1
# [10] = target: Neu5Ac(a2-3)Gal(b1-4)Glc
# Summary of the method: as §1
# [11] = target: Neu5Ac(a2-3)Gal(b1-4)GlcNAc
# Summary of the method: as §1
# [12] = target: Neu5Ac(a2-3)Gal(b1-4)GlcNAc(b1-2)Man(a1-3)[Neu5Ac(a2-3)Gal(b1-4)GlcNAc(b1-2)Man(a1-6)]Man(b1-4)GlcNAc(b1-4)GlcNAc
# Summary of the method: as §1
# [13] = target: Neu5Ac(a2-3)Gal(b1-4)GlcNAc(b1-3)Gal(b1-4)GlcNAc
# Summary of the method: as §1
# [14] = target: Neu5Ac(a2-3)Gal(b1-4)GlcNAc(b1-3)Gal(b1-4)GlcNAc(b1-3)Gal(b1-4)GlcNAc
# Summary of the method: as §1
# [15] = target: Neu5Ac(a2-3)Gal(b1-4)GlcNAc(b1-3)Gal(b1-4)[Fuc(a1-3)]GlcNAc
# Summary of the method: as §1
# [16] = target: Neu5Ac(a2-3)Gal(b1-4)GlcNAc6S
# Summary of the method: as §1
# [17] = target: Neu5Ac(a2-3)Gal(b1-4)[Fuc(a1-3)]GlcNAc
# Summary of the method: as §1
# [18] = target: Neu5Ac(a2-3)Gal(b1-4)[Fuc(a1-3)]GlcNAc(b1-3)Gal
# Summary of the method: as §1
# [19] = target: Neu5Ac(a2-3)Gal(b1-4)[Fuc(a1-3)]GlcNAc(b1-3)Gal(b1-4)GlcNAc
# Summary of the method: as §1
# [20] = target: Neu5Ac(a2-3)Gal(b1-4)[Fuc(a1-3)]GlcNAc(b1-3)Gal(b1-4)[Fuc(a1-3)]GlcNAc(b1-3)Gal(b1-4)[Fuc(a1-3)]GlcNAc
# Summary of the method: as §1
# [21] = target: Neu5Ac(a2-3)Gal(b1-4)[Fuc(a1-3)]GlcNAc6S
# Summary of the method: as §1
# [22] = target: Neu5Ac(a2-3)Gal6S(b1-4)GlcNAc
# Summary of the method: as §1
# [23] = target: Neu5Ac(a2-3)Gal6S(b1-4)[Fuc(a1-3)]GlcNAc
# Summary of the method: as §1
# [24] = target: Neu5Ac(a2-3)GalNAc
# Summary of the method: as §1
# [25] = target: Neu5Ac(a2-3)GalNAc(b1-4)GlcNAc
# Summary of the method: as §1
# [26] = target: Neu5Ac(a2-3)[GalNAc(b1-4)]Gal(b1-4)Glc
# Summary of the method: as §1
# [27] = target: Neu5Ac(a2-3)[GalNAc(b1-4)]Gal(b1-4)GlcNAc
# Summary of the method: as §1
# [28] = target: Neu5Ac(a2-3)[Neu5Ac(a2-6)]GalNAc
# Summary of the method: as §1
# [29] = target: Neu5Ac(a2-6)Gal
# Summary of the method: as §1
# [30] = target: Neu5Ac(a2-6)Gal(b1-4)Glc
# Summary of the method: as §1
# [31] = target: Neu5Ac(a2-6)Gal(b1-4)GlcNAc
# Summary of the method: as §1
# [32] = target: Neu5Ac(a2-6)Gal(b1-4)GlcNAc(b1-3)Gal(b1-4)GlcNAc
# Summary of the method: as §1
# [33] = target: Neu5Ac(a2-6)Gal(b1-4)GlcNAc(b1-3)Gal(b1-4)[Fuc(a1-3)]GlcNAc(b1-3)Gal(b1-4)[Fuc(a1-3)]GlcNAc
# Summary of the method: as §1
# [34] = target: Neu5Ac(a2-6)Gal(b1-4)GlcNAc6S
# Summary of the method: as §1
# [35] = target: Neu5Ac(a2-6)GalNAc
# Summary of the method: as §1
# [36] = target: Neu5Ac(a2-6)GalNAc(b1-4)GlcNAc
# Summary of the method: as §1
# [37] = target: Neu5Ac(a2-8)Neu5Ac
# Summary of the method: as §1
# [38] = target: Neu5Ac(a2-8)Neu5Ac(a2-3)Gal(b1-4)Glc
# Summary of the method: as §1
# [39] = target: Neu5Ac(a2-8)Neu5Ac(a2-3)[GalNAc(b1-4)]Gal(b1-4)Glc
# Summary of the method: as §1
# [40] = target: Neu5Ac(a2-8)Neu5Ac(a2-8)Neu5Ac
# Summary of the method: as §1
# [41] = target: Neu5Ac(a2-8)Neu5Ac(a2-8)Neu5Ac(a2-3)Gal(b1-4)Glc
# Summary of the method: as §1
# [42] = target: Neu5Ac(a2-8)Neu5Ac(a2-8)Neu5Ac(a2-3)[GalNAc(b1-4)]Gal(b1-4)Glc
# Summary of the method: as §1
# [43] = target: Neu5Ac(a2-8)Neu5Ac(a2-8)Neu5Ac(a2-8)Neu5Ac(a2-3)[GalNAc(b1-4)]Gal(b1-4)Glc
# Summary of the method: as §1
# [44] = target: Neu5Ac(b1-6)GalNAc
# Summary of the method: as §1
# [45] = target: Neu5Ac(b2-6)Gal(b1-4)GlcNAc
# Summary of the method: as §1
# [46] = target: Neu5Ac9Ac(a2-6)Gal(b1-4)GlcNAc
# Summary of the method: as §1
# [47] = target: Neu5Gc(a2-3)Gal(b1-3)GlcNAc
# Summary of the method: as §1
# [48] = target: Neu5Gc(a2-3)Gal(b1-3)[Fuc(a1-4)]GlcNAc
# Summary of the method: as §1
# [49] = target: Neu5Gc(a2-3)Gal(b1-4)Glc
# Summary of the method: as §1
# [50] = target: Neu5Gc(a2-3)Gal(b1-4)GlcNAc
# Summary of the method: as §1
# [51] = target: Neu5Gc(a2-3)Gal(b1-4)[Fuc(a1-3)]GlcNAc
# Summary of the method: as §1
# [52] = target: Neu5Gc(a2-6)Gal(b1-4)GlcNAc
# Summary of the method: as §1
# [53] = target: Neu5Gc(a2-6)GalNAc
# Summary of the method: as §1
binder,measurement,setting,value
B1,glycan array binding signal (z-score),[1],-0.5
same,glycan array binding signal (z-score),[2],-0.501
same,glycan array binding signal (z-score),[3],-0.502
same,glycan array binding signal (z-score),[4],-0.5
same,glycan array binding signal (z-score),[5],-0.5
same,glycan array binding signal (z-score),[6],1.92
same,glycan array binding signal (z-score),[7],0.938
same,glycan array binding signal (z-score),[8],-0.502
same,glycan array binding signal (z-score),[9],-0.502
same,glycan array binding signal (z-score),[10],-0.499
same,glycan array binding signal (z-score),[11],-0.502
same,glycan array binding signal (z-score),[12],-0.492
same,glycan array binding signal (z-score),[13],-0.498
same,glycan array binding signal (z-score),[14],-0.502
same,glycan array binding signal (z-score),[15],-0.502
same,glycan array binding signal (z-score),[16],-0.502
same,glycan array binding signal (z-score),[17],-0.305
same,glycan array binding signal (z-score),[18],-0.237
same,glycan array binding signal (z-score),[19],-0.296
same,glycan array binding signal (z-score),[20],-0.078
same,glycan array binding signal (z-score),[21],-0.275
same,glycan array binding signal (z-score),[22],-0.402
same,glycan array binding signal (z-score),[23],-0.387
same,glycan array binding signal (z-score),[24],-0.502
same,glycan array binding signal (z-score),[25],-0.501
same,glycan array binding signal (z-score),[26],-0.501
same,glycan array binding signal (z-score),[27],-0.5
same,glycan array binding signal (z-score),[28],-0.501
same,glycan array binding signal (z-score),[29],-0.501
same,glycan array binding signal (z-score),[30],-0.497
same,glycan array binding signal (z-score),[31],-0.502
same,glycan array binding signal (z-score),[32],-0.502
same,glycan array binding signal (z-score),[33],-0.107
same,glycan array binding signal (z-score),[34],-0.501
same,glycan array binding signal (z-score),[35],-0.501
same,glycan array binding signal (z-score),[36],-0.502
same,glycan array binding signal (z-score),[37],-0.511
same,glycan array binding signal (z-score),[38],-0.501
same,glycan array binding signal (z-score),[39],-0.501
same,glycan array binding signal (z-score),[40],-0.501
same,glycan array binding signal (z-score),[41],-0.501
same,glycan array binding signal (z-score),[42],-0.494
same,glycan array binding signal (z-score),[43],-0.495
same,glycan array binding signal (z-score),[44],-0.502
same,glycan array binding signal (z-score),[45],-0.501
same,glycan array binding signal (z-score),[46],-0.502
same,glycan array binding signal (z-score),[47],-0.502
same,glycan array binding signal (z-score),[48],1.61
same,glycan array binding signal (z-score),[49],-0.498
same,glycan array binding signal (z-score),[50],-0.491
same,glycan array binding signal (z-score),[51],-0.375
same,glycan array binding signal (z-score),[52],-0.502
same,glycan array binding signal (z-score),[53],-0.501
